{"source": "paper PMC4336329", "about": "(PLoS ONE, 2015)", "note": "The campaign covered roughly 310,000 compounds. About 2,200 (0.71%) showed an effect of 50% or more. Effects have a minus sign here. Some of the results follow."}
{"target": "human ether-à-go-go-related gene (hERG) potassium channel (human, UniProt Q12809)", "sequence (Q12809 whole entry, looked up)": "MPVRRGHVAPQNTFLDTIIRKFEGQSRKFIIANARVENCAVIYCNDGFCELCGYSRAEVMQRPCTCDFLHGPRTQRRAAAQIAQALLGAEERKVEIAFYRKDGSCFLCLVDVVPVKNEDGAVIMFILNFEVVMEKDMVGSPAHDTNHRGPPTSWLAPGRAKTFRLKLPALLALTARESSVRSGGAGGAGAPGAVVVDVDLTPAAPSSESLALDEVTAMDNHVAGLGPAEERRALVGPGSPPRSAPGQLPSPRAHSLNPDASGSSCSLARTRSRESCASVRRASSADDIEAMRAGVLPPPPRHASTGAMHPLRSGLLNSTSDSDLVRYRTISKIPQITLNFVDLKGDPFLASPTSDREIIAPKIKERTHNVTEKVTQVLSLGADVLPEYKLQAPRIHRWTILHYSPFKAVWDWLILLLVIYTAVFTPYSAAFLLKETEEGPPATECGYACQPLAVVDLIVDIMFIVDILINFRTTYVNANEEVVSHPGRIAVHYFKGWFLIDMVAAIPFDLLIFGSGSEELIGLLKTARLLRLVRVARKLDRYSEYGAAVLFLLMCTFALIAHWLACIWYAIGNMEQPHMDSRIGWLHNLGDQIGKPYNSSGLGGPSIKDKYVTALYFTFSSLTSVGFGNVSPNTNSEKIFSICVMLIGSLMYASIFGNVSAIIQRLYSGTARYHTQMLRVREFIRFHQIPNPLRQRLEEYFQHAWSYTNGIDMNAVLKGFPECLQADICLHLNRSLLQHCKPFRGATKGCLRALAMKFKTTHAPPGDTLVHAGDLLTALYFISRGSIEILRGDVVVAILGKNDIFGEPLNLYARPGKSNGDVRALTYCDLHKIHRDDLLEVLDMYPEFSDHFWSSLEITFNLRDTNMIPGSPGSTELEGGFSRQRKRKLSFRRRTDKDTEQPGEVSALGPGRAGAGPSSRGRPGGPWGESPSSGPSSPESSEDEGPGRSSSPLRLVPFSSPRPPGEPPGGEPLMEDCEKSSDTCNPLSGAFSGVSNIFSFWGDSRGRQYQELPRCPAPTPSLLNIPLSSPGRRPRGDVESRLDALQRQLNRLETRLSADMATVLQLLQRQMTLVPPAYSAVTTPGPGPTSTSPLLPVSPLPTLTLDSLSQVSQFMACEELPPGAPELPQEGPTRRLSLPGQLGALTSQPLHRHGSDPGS", "test": "primary screen, population patch clamp on CHO cells stably expressing hERG", "units": {"hERG current change (%, negative = inhibition) at 1uM": "%"}}
{"smiles": "CCOC(=O)CC1C(=O)NCCN1S(=O)(=O)c1ccc(NC(C)=O)cc1", "note": "(stereo not drawn)", "hERG current change (%, negative = inhibition) at 1uM": 11.2}
{"smiles": "Cc1ccc(S(=O)(=O)NCc2nc(-c3ccccc3)no2)cc1", "hERG current change (%, negative = inhibition) at 1uM": 11}
{"smiles": "CCNC(=S)NNC(=O)CC(C)C", "hERG current change (%, negative = inhibition) at 1uM": 11.8}
{"smiles": "COc1ccccc1NS(=O)(=O)c1ccc(NC(=O)Cc2cccs2)cc1", "hERG current change (%, negative = inhibition) at 1uM": 11.3}
{"smiles": "Cc1ccc(S(=O)(=O)CCSc2nc(C)cc(C(F)(F)F)c2C#N)cc1", "hERG current change (%, negative = inhibition) at 1uM": -0.18}
{"smiles": "CN(CC(=O)Nc1ccccc1Cl)C(=O)Cn1cc(C(F)(F)F)ccc1=O", "hERG current change (%, negative = inhibition) at 1uM": 0.414}
{"smiles": "CCCCN(C)c1nc(-c2ccco2)c2c(c1C#N)CC(C)(C)OC2", "hERG current change (%, negative = inhibition) at 1uM": 10.8}
{"smiles": "COc1ccccc1NC(=O)c1cc(Cl)nc2ccccc12", "hERG current change (%, negative = inhibition) at 1uM": 16.8}
{"smiles": "CC(=O)Nc1nc2cc3c(cc2s1)OCCO3", "hERG current change (%, negative = inhibition) at 1uM": 4.38}
{"smiles": "COc1ccc(C2NC(=O)NC(C)=C2C(=O)Nc2cc(C)ccc2C)cc1OC", "note": "(stereo not drawn)", "hERG current change (%, negative = inhibition) at 1uM": 4.32}
{"smiles": "O=C1CCCN1C(=O)CCC(=O)N1CCCC1=O", "hERG current change (%, negative = inhibition) at 1uM": -3.97}
{"smiles": "C=CCNS(=O)(=O)c1ccc(C(=O)OCc2cc(=O)oc3cc(OC)ccc23)cc1", "hERG current change (%, negative = inhibition) at 1uM": 12.1}
{"smiles": "CN(C)C=NC(=O)c1cc(C(=O)c2ccccc2)c[nH]1", "hERG current change (%, negative = inhibition) at 1uM": 13.2}
{"smiles": "CC(C)(C)SCCNC(=O)/C=C/c1cccc([N+](=O)[O-])c1", "hERG current change (%, negative = inhibition) at 1uM": 1.55}
{"smiles": "CC(=O)Nc1ccc(S(=O)(=O)N(C)CC(=O)N/N=C/c2cccs2)cc1", "hERG current change (%, negative = inhibition) at 1uM": 10.6}
{"smiles": "O=C(NNC(=O)c1ccc([N+](=O)[O-])cc1)c1ccc(Br)cc1", "hERG current change (%, negative = inhibition) at 1uM": 16.2}
{"smiles": "COCCCNCC#CCOc1ccc(OC)cc1.O=C(O)C(=O)O", "hERG current change (%, negative = inhibition) at 1uM": 10.8}
{"smiles": "CCOc1ccc(/C(O)=C2/C(=O)C(=O)N(CCOCCO)C2c2ccccc2)cc1", "note": "(stereo not drawn)", "hERG current change (%, negative = inhibition) at 1uM": 9.82}
{"smiles": "Cc1onc(-c2ccccc2)c1C(=O)Nc1cccnc1", "hERG current change (%, negative = inhibition) at 1uM": 2.74}
{"smiles": "COC(=O)c1cc(NC(=S)N2CCN(C(=O)C3CCCO3)CC2)cc(C(=O)OC)c1", "note": "(stereo not drawn)", "hERG current change (%, negative = inhibition) at 1uM": 1.76}
{"smiles": "CCc1ccc(NC2=NCC(=O)N2Cc2ccc3c(c2)OCO3)cc1", "hERG current change (%, negative = inhibition) at 1uM": 13.1}
{"smiles": "CN(CC(=O)NC1(C)CCS(=O)(=O)C1)S(=O)(=O)c1ccc(Cl)cc1", "note": "(stereo not drawn)", "hERG current change (%, negative = inhibition) at 1uM": 13.2}
{"smiles": "Cc1c(C(=O)N2CCC(Cc3ccccc3)CC2)sc2ncnc(N3CCC(C)CC3)c12", "hERG current change (%, negative = inhibition) at 1uM": 9.72}
{"smiles": "Cc1cc(C)cc(NC(=S)NC2CC3CCC(C2)N3Cc2ccco2)c1", "note": "(stereo not drawn)", "hERG current change (%, negative = inhibition) at 1uM": -48.1}
{"smiles": "COCCN(C(=O)CSc1nnc(-c2cccc(F)c2)n1N)c1c(N)n(CC(C)C)c(=O)[nH]c1=O", "hERG current change (%, negative = inhibition) at 1uM": 14.8}
{"smiles": "COCc1c(Br)c(C)[nH]c(=O)c1C#N", "hERG current change (%, negative = inhibition) at 1uM": 8.35}
{"smiles": "COc1cc(Nc2cc(C)nc3nc(C)nn23)cc(OC)c1OC", "hERG current change (%, negative = inhibition) at 1uM": 7.68}
{"smiles": "Cc1ccc(C)c(S(=O)(=O)N2CCN(C(=O)CSc3ccccc3)CC2)c1", "hERG current change (%, negative = inhibition) at 1uM": 6.6}
{"smiles": "Cc1ccc(S(=O)(=O)/N=C(\\Nc2cc(C)on2)c2ccc(Cl)cc2)cc1", "hERG current change (%, negative = inhibition) at 1uM": 0.503}
{"smiles": "O=C(c1cc(COc2ccc3ncccc3c2)on1)N1CCCC1", "hERG current change (%, negative = inhibition) at 1uM": 13.5}
{"smiles": "COc1ccc(N(CC(=O)Nc2ccc(C)cn2)S(=O)(=O)c2c(C)nn(C)c2C)cc1", "hERG current change (%, negative = inhibition) at 1uM": 5.85}
{"smiles": "CC1C(=O)C(C)C(c2cccs2)NC1c1cccs1", "note": "(stereo not drawn)", "hERG current change (%, negative = inhibition) at 1uM": 9.2}
{"smiles": "COC(=O)[C@@]12CCCN1[C@H](c1ccc(-c3ccc(OC)cc3)c(OC)c1)[C@H]1C(=O)N(C)C(=O)[C@H]12.O=C(O)C(F)(F)F", "hERG current change (%, negative = inhibition) at 1uM": 4.72}
{"smiles": "C=CCNc1cnn(CC(C)=O)c(=O)c1Br", "hERG current change (%, negative = inhibition) at 1uM": -0.682}
{"smiles": "O=C1CCCc2c1cc(C(=O)NCCCN1CCOCC1)c(=O)n2-c1ccc(Cl)cc1", "hERG current change (%, negative = inhibition) at 1uM": 11.5}
{"smiles": "CN(c1ccc(C(=O)NCC2CCCO2)cc1)S(C)(=O)=O", "note": "(stereo not drawn)", "hERG current change (%, negative = inhibition) at 1uM": 16.1}
{"smiles": "COc1ccc(CNC(=O)CN(C(=O)c2csnn2)c2cnc3ccccc3c2)cc1", "hERG current change (%, negative = inhibition) at 1uM": 7.09}
{"smiles": "COC(=O)c1cc(C)sc1NC(=O)C1C2C=CC(CC2)C1C(=O)O", "note": "(stereo not drawn)", "hERG current change (%, negative = inhibition) at 1uM": 8.38}
{"smiles": "Cc1cc(C)c(C#N)c(N2CCN(c3ccccc3F)CC2)n1", "hERG current change (%, negative = inhibition) at 1uM": 17.8}
{"smiles": "CC(=O)c1ccccc1NS(=O)(=O)c1c(C)nn(-c2ccccc2)c1C", "hERG current change (%, negative = inhibition) at 1uM": 8.49}
{"smiles": "COc1ccc(C(=O)Nc2nc(-c3ccc(OC)cc3)c(-c3ccc([N+](=O)[O-])cc3)s2)cc1", "hERG current change (%, negative = inhibition) at 1uM": 17.2}
{"smiles": "Cc1cccc(OCC(=O)Nc2nccs2)c1C", "hERG current change (%, negative = inhibition) at 1uM": 8.63}
{"smiles": "O=C1NC(=O)/C(=C/c2cc3c(cc2Br)OCO3)S1", "hERG current change (%, negative = inhibition) at 1uM": 10.1}
{"smiles": "COc1ccc(C)cc1-n1ccn(CC(=O)Nc2ccc(Br)cc2F)c(=O)c1=O", "hERG current change (%, negative = inhibition) at 1uM": 3.64}
{"smiles": "O=C(Nc1ccccc1)c1ccc(=O)n(Cc2cccc(Cl)c2)c1", "hERG current change (%, negative = inhibition) at 1uM": 5.97}
{"smiles": "Cc1scc(C(=O)N2CCN(c3ccc(Cl)cc3)CC2)c1C", "hERG current change (%, negative = inhibition) at 1uM": 3.45}
{"smiles": "COc1ccc(-c2nc(N)n(C(=O)c3ccccc3Cl)n2)cc1", "hERG current change (%, negative = inhibition) at 1uM": 13.4}
{"smiles": "COc1ccc(CCNc2nc(C)nc3c2nnn3Cc2ccccc2)cc1OC", "hERG current change (%, negative = inhibition) at 1uM": 11.1}
{"smiles": "COc1cc(N2C(=O)CSC23C(=O)Nc2ccccc23)cc(OC)c1OC", "note": "(stereo not drawn)", "hERG current change (%, negative = inhibition) at 1uM": 5.55}
{"smiles": "Cl.Oc1cccnc1CCc1ccccc1", "hERG current change (%, negative = inhibition) at 1uM": 7.98}
{"smiles": "COCCCN1CCc2[nH]c(=S)[nH]c(=O)c2C1", "hERG current change (%, negative = inhibition) at 1uM": 15.8}
{"smiles": "CCCCn1c(=O)n(Cc2cccc(F)c2)c(=O)c2c1ncn2Cc1ccco1", "hERG current change (%, negative = inhibition) at 1uM": 4.42}
{"smiles": "Cc1cc(C)c2c(CN3CCN(CCO)CC3)cc(=O)oc2c1", "hERG current change (%, negative = inhibition) at 1uM": -32.7}
{"smiles": "COc1cc(SC)ccc1C(=O)Nc1nc(C)cs1", "hERG current change (%, negative = inhibition) at 1uM": 5.52}
{"smiles": "Cc1cc([N+](=O)[O-])ccc1NC(=S)NC(=O)Cc1ccccc1", "hERG current change (%, negative = inhibition) at 1uM": 10.3}
{"smiles": "O=C(CCCCn1c(=O)[nH]c2ccccc2c1=O)NCCc1c[nH]c2ccccc12", "hERG current change (%, negative = inhibition) at 1uM": 7.75}
{"smiles": "CNC(=O)C1CN(C(=O)c2cccc(S(=O)(=O)N3c4ccccc4CC3C)c2)c2ccccc2O1", "note": "(stereo not drawn)", "hERG current change (%, negative = inhibition) at 1uM": 8.58}
